Data reported in the supplement of paper PMC11098506.
± gives the standard deviation of the averaged measurements. Some of the results follow.

B1: VDAC2; numbered along this chain (parent)
chain: MATHGQTCARPMCIPPSYADLGKAARDIFNKGFGFGLVKLDVKTKSCSGVEFSTSGSSNTDTGKVTGTLETKYKWCEYGLTFTEKWNTDNTLGTEIAIEDQICQGLKLTFDTTFSPNTGKKSGKIKSSYKRECINLGCDVDFDFAGPAIHGSAVFGYEGWLAGYQMTFDSAKSKLTRNNFAVGYRTGDFQLHTNVNDGTEFGGSIYQKVCEDLDTSVNLAWTSGTNCTRFGIAAKYQLDPTASISAKVNNSSLIGVGYTQTLRPGVKLTLSALVDGKSINAGGHKVGLALELEA

Variants of: B1
Test: log2 fold difference of barcode abundance, GFP-BAK-high vs GFP-BAK-low sorted fraction (log2 ratio); higher = VDAC2 variant stabilises more GFP-BAK at mitochondria
Conditions: with BAK1 (mouse, GFP-tagged), Mcl1-/- Bax-/- Bak-/- Vdac2-/- MEF + GFP-mBAK
Experimental: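 Deep mutational scan of human VDAC2 (FLAG-tagged) with single amino acid substitutions at positions Q165–F180 (β10–11 loop), each barcoded clone expressed by retrovirus in Mcl1/Bax/Bak/Vdac2-deficient MEFs that also express GFP-tagged mouse BAK. Cells were sorted into GFP-high and GFP-low fractions and barcodes counted by Illumina sequencing. The score is log2(CPM) in GFP-BAK-high minus log2(CPM) in GFP-BAK-low, per barcode; barcodes of the same variant are averaged. It reports BAK recruitment and stabilisation at the mitochondrial outer membrane.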
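Further: sorting relied on GFP fluorescence, which stays low in these cells lacking VDAC2 and climbs sharply once wild-type VDAC2 is expressed.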

Row | Variant | log2 fold difference
1 | F168E | -0.35 ± 1
2 | K172C | 0.0231 ± 1.1
3 | K172A | -0.394 ± 0.97
4 | K172E | 0.271 ± 0.97
5 | K172H | -0.582 ± 0.62
6 | K172P | 0.133 ± 0.84
7 | K172Y | 0.569 ± 1.1
8 | K172W | -0.302 ± 0.96
9 | K172L | 0.726 ± 0.58
10 | K172G | 0.0329 ± 0.88
11 | K172M | 0.394 ± 2.2
12 | K172F | 0.891 ± 0.85
13 | K172I | 0.817 ± 0.68
14 | K172T | 0.736 ± 0.74
15 | K172N | 0.432 ± 0.58
16 | K172Q | -0.145 ± 1.4
17 | K172S | -0.302 ± 1
18 | K172R | 0.536 ± 0.98
19 | K172V | 0.257 ± 1
20 | K172D | 0.116 ± 0.43
21 | K174S | 0.161 ± 1.2
22 | K174R | 0.0885 ± 0.94
23 | K174M | -0.0485
24 | K174P | -0.467 ± 0.46
25 | K174G | 0.223 ± 0.92
26 | K174A | 0.102 ± 0.74

Row | Variant | log2 fold difference
27 | K174H | 0.284 ± 0.47
28 | K174Q | 0.183 ± 0.43
29 | K174D | 0.0155 ± 1.1
30 | K174T | -0.219 ± 0.87
31 | K174V | 0.285 ± 0.8
32 | K174E | 0.783 ± 1.1
33 | K174W | 0.165 ± 0.93
34 | K174L | 0.0239 ± 1.1
35 | K174Y | 0.779 ± 0.77
36 | K174C | -0.112 ± 0.67
37 | K174F | 0.43 ± 1.2
38 | K174I | 0.852 ± 1
39 | K174N | 0.28 ± 0.89
40 | F180C | -0.0591 ± 0.88
41 | F180D | -1.05 ± 0.54
42 | F180A | 0.911 ± 0.93
43 | F180N | -1.01 ± 0.55
44 | F180P | -1.2 ± 1.3
45 | F180V | -0.0426 ± 1
46 | F180I | -0.117 ± 0.69
47 | F180G | -0.09 ± 0.96
48 | F180S | -0.649 ± 0.94
49 | F180K | -1.02 ± 0.86
50 | F180W | 0.395 ± 0.46
51 | F180E | -1.02 ± 0.83
52 | F180R | -0.757 ± 0.97

Row | Variant | log2 fold difference
53 | F180L | -0.0235 ± 0.79
54 | F180Y | -0.111 ± 1.1
55 | F180M | -0.333 ± 0.58
56 | F180Q | -0.926 ± 0.43
57 | F180H | 0.1 ± 0.72
58 | F180T | -0.877 ± 1.1
59 | S173I | 0.0851 ± 0.98
60 | S173N | 0.536 ± 0.82
61 | S173F | 0.843 ± 1.3
62 | S173V | 0.0865 ± 0.9
63 | S173H | -0.352 ± 0.43
64 | S173T | -0.25 ± 0.8
65 | S173K | -0.75 ± 0.63
66 | S173E | 2.03 ± 1
67 | S173P | -0.988 ± 0.82
68 | S173A | 0.541 ± 0.97
69 | S173Q | 0.497 ± 1.7
70 | S173C | -0.537 ± 0.82
71 | S173W | -0.644 ± 0.96
72 | S173M | 0.0867 ± 1.6
73 | S173G | 0.799 ± 1
74 | S173D | 0.492 ± 1.4
75 | S173Y | -0.238 ± 1.1
76 | S173L | -0.0284 ± 0.97
77 | S173R | -0.222 ± 0.86
78 | unchanged | 0.0191 ± 1

Row | Variant | log2 fold difference
79 | M166E | -1.02 ± 0.77
80 | M166N | 0.104 ± 0.77
81 | M166F | 0.244 ± 0.41
82 | M166L | -0.137 ± 0.7
83 | M166T | -0.058 ± 0.33
84 | M166K | -1.3 ± 0.38
85 | M166Y | -0.902 ± 0.41
86 | M166I | 0.468 ± 0.74
87 | M166C | 0.727 ± 0.93
88 | M166G | -0.0276 ± 0.92
89 | M166D | -0.284 ± 0.97
90 | M166Q | -0.373 ± 0.75
91 | M166V | 0.766 ± 1
92 | M166S | 0.0933 ± 0.74
93 | M166R | -0.911 ± 0.78
94 | M166A | -0.0422 ± 1.3
95 | M166H | -0.812
96 | M166W | 1.32 ± 0.81
97 | A171E | 1.02 ± 0.69
98 | A171M | 1.1 ± 0.63
99 | A171I | 1.22 ± 0.5
100 | A171Y | -0.0538 ± 0.51
101 | A171H | 0.461 ± 0.74
102 | A171K | -0.604 ± 0.85
103 | A171T | 0.454 ± 0.91
104 | A171P | 0.514 ± 1.3

Row | Variant | log2 fold difference
105 | A171S | -0.589 ± 0.81
106 | A171R | -0.84 ± 0.74
107 | A171Q | -0.529 ± 1
108 | A171V | 0.962 ± 0.81
109 | A171L | 1.14 ± 0.77
110 | A171N | -0.514 ± 1.1
111 | A171G | -0.547 ± 1
112 | A171D | 0.69 ± 1
113 | A171W | -1.21 ± 0.6
114 | A171F | 0.829 ± 1
115 | A171C | 0.631 ± 0.97
116 | Q165R | 0.305 ± 0.69
117 | Q165G | 0.428 ± 0.71
118 | Q165T | 0.613 ± 0.92
119 | Q165S | 0.315 ± 0.94
120 | Q165L | 0.22 ± 1.2
121 | Q165M | 0.712 ± 0.44
122 | Q165F | 0.391 ± 0.37
123 | Q165Y | -0.997 ± 1.9
124 | Q165V | -0.146 ± 0.8
125 | Q165C | 0.225 ± 1.5
126 | Q165I | 0.601 ± 0.87
127 | Q165A | 0.454 ± 1.4
128 | Q165E | 0.573 ± 1.1
129 | Q165D | -0.602 ± 0.7
130 | Q165K | 0.357 ± 1.3

Row | Variant | log2 fold difference
131 | Q165P | -0.613 ± 1.4
132 | Q165W | 0.201 ± 0.72
133 | Q165N | 0.281 ± 1.4
134 | Q165H | 0.135 ± 0.9
135 | S170N | 0.00725
136 | S170E | 0.876 ± 0.56
137 | S170G | 0.631 ± 1
138 | S170W | -0.594 ± 0.8
139 | S170C | -0.341 ± 0.97
140 | S170A | 0.671 ± 1.1
141 | S170P | -0.99 ± 1.2
142 | S170R | -0.591 ± 0.96
143 | S170L | -0.224 ± 0.99
144 | S170T | 0.139 ± 0.76
145 | S170F | 0.812 ± 0.92
146 | S170H | -0.179 ± 1.5
147 | S170Y | 0.214 ± 0.73
148 | S170Q | 0.353 ± 0.41
149 | S170K | 0.285 ± 0.86
150 | S170I | -0.949 ± 2.4
151 | S170V | -0.895 ± 1
152 | S170M | 0.136
